Data as given in PMC4336329 (PLoS ONE, 2015).
Hit rate of the full screen: of about 310,000 compounds, about 2,200 (0.71%) showed an effect of 50% or more. The effect is printed as a negative number. Some of the results follow.

biological target: human ether-à-go-go-related gene (hERG) potassium channel (human, UniProt Q12809); assay: primary screen, population patch clamp on CHO cells stably expressing hERG
Sequence (Q12809 whole entry, looked up): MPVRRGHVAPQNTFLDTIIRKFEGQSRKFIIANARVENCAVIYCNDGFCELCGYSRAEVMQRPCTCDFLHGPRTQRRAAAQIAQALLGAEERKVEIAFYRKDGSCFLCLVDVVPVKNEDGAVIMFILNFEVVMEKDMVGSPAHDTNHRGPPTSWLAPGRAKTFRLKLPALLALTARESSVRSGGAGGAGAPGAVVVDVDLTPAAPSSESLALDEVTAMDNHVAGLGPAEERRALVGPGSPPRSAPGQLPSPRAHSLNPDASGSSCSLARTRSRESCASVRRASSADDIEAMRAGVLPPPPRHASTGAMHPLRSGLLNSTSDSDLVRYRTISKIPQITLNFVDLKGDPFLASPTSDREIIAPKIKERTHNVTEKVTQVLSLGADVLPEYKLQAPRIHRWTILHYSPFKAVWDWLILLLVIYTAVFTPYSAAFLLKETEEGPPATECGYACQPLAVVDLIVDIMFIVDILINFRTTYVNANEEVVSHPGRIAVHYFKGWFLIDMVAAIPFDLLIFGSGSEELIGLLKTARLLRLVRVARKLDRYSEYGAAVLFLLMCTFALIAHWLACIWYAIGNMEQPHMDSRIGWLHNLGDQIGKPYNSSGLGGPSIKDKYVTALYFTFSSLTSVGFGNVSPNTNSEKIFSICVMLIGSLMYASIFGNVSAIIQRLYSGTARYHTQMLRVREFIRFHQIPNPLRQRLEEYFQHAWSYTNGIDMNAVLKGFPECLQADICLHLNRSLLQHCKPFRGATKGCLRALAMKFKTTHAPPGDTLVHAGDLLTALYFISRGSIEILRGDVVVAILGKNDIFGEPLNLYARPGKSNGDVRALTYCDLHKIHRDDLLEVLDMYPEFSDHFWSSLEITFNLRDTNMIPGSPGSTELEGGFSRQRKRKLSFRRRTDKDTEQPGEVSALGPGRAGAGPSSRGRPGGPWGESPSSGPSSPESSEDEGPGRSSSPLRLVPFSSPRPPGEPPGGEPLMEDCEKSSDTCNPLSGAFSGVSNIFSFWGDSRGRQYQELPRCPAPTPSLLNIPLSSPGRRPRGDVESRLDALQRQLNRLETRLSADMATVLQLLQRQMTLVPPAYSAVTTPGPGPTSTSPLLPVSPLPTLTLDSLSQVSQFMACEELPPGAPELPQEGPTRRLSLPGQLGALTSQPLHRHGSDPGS

| SMILES | hERG current change (%, negative = inhibition) at 1uM [%] |
| --- | --- |
| Nc1ccccc1O | 15.1 |
| CCN(CC(=O)Nc1c(F)cccc1F)C(=O)c1ccc(C(F)(F)F)cc1 | 7.87 |
| Cc1ccc(C(=O)NCCCCNC(=O)c2ccc(C)o2)o1 | -3.41 |
| S=c1[nH]nc(-c2ccco2)n1/N=C/c1ccc(Br)s1 | -4.5 |
| COc1ccc(N(CC(=O)NC2CC3CCC2C3)S(=O)(=O)c2ccccc2)cc1OC (centres unmarked) | 14.1 |
| CCOC(=O)C1(Cc2ccccc2C)CCCN(C(=O)c2cc(C3CC3)[nH]n2)C1 (centres unmarked) | 7.4 |
| CCN(CC(=O)Nc1ccc(OC)cc1)CC(=O)N1CC(=O)Nc2ccccc21 | 7.12 |
| Nc1nnc(Sc2ncccc2[N+](=O)[O-])s1 | 3.07 |
| CSCCC(NC(N)=O)C(=O)Nc1cccc(S(=O)(=O)N2CCOCC2)c1 (centres unmarked) | 15.3 |
| CCOC(=O)C1CCCN(S(=O)(=O)c2ccc(S(=O)(=O)N3CCCC3)cc2)C1 (centres unmarked) | 10.1 |
| COc1ccc(CNC(=O)c2cc3c(s2)CN(Cc2ccccc2)C3)cc1.Cl | 5.84 |
| CC(=O)N(Nc1ccccc1)c1ccccc1 | 15.3 |
| O=C(Nc1cccnc1)c1ccc(F)cc1 | 10.6 |
| CCOC(=O)N1CCN(C(=O)c2ccc(N(Cc3ccccc3)S(C)(=O)=O)cc2)CC1 | 7.98 |
| CCOC(=O)C1CCCN(C(=O)c2cc3nc(-c4ccc5c(c4)OCO5)cc(C(F)(F)F)n3n2)C1 (centres unmarked) | 7.17 |
| Cc1nc(C)c(CC(=O)N2CCc3c([nH]c4ccccc34)C2c2ccccn2)s1 (centres unmarked) | 12.3 |
| Cc1cc(C2CC(=O)Nc3ccccc3S2)c(C)s1 (centres unmarked) | 11.1 |
| CC1CCC(NC(=O)CN2C(=O)COc3ccc(S(=O)(=O)N4CCCC4)cc32)CC1 (centres unmarked) | 4.56 |
| CC1CN(C(=O)c2cccc(COc3ccc(Br)cc3)c2)CC(C)O1 (centres unmarked) | 12.9 |
| Cc1cc(C)nc(-n2ncc3c2CC(c2cccc(Cl)c2)CC3=O)n1 (centres unmarked) | 7.76 |
| CCN(CC)S(=O)(=O)c1ccc(C)c(NC(=O)CN2CCN(C)CC2)c1.O=C(O)C(=O)O | 6 |
| Cc1cc(C(=O)NCC(c2ccco2)N(C)C)no1 (centres unmarked) | 8.48 |

| SMILES | hERG current change (%, negative = inhibition) at 1uM [%] |
| --- | --- |
| Cc1cc(N2CCN(c3ccccc3Cl)CC2)n2cc(-c3ccccc3)nc2n1 | -2.03 |
| COc1ccc(CC(C)CC(=O)NCCc2ccc(OC)c(OC)c2)cc1 (centres unmarked) | 10.7 |
| CCOc1ncccc1C(=O)N1CCN(C(c2ccccc2)c2ccccc2)CC1 | 12.8 |
| Cc1cc(/C=C2\C(=O)NC(=O)N(c3cccc(Br)c3)C2=O)c(C)n1C | 4.13 |
| N#CC(C(=O)c1ccccc1Cl)=C1SCCCS1 | -2.83 |
| O=C(CSc1ccccn1)Nc1ccccc1F | -0.346 |
| O=C(c1ccco1)N1CCN(C(=O)c2cc(=O)[nH]c3ccccc23)CC1 | 12.4 |
| CCOC(=O)C1(CCCc2ccccc2)CCN(C(=O)c2cncs2)CC1 | -18.1 |
| CCc1ccc(NC(=S)N(CCN2CCCCC2)Cc2ccco2)cc1 | -34.7 |
| CCCC(c1nnnn1Cc1ccc(OC)cc1)N1CCN(c2ccccc2OC)CC1 (centres unmarked) | 7.87 |
| O=C1C(Nc2cccc(O)c2)=C(N2CCCCC2)C(=O)c2ccccc21 | 7.99 |
| COc1ccc2ccc(=O)oc2c1 | 1.86 |
| Cc1cc(C)cc(N(CCC(=O)Nc2nnc(C3CC3)s2)S(=O)(=O)c2ccc(Cl)cc2)c1 | 11.1 |
| CCOC(=O)C(C)N1C(=O)S/C(=C/c2cc(C)n(-c3ccccn3)c2C)C1=O (centres unmarked) | 14.8 |
| COC(=O)c1ccc(SCc2ccccc2)nc1 | 14.9 |
| COC(=O)c1ccc(C2N=C(c3cccs3)CC(c3ccccc3O)N2)cc1 (centres unmarked) | 12.4 |
| COCCn1nnnc1C(CC(C)C)N1CCN(c2nc3ccccc3s2)CC1 (centres unmarked) | 3.43 |
| Cc1cc(C)nc(NC(C)(C)C(=O)O)n1 | 10.5 |
| COc1ccc(C(=O)N/C(=C\c2ccccc2)C(=O)N2CCOCC2)cc1 | 9.79 |
| Cc1cc2nnc(SCC(=O)N(C)C3CCS(=O)(=O)C3)n2c2ccccc12 (centres unmarked) | 10.4 |
| Cc1cccc(-c2nc(=S)c3c(n2Cc2ccco2)CCCC3)c1 | 14.3 |
| C=CCN(c1ccccc1OC)S(=O)(=O)c1cccc(C(=O)OCC(=O)c2c[nH]c3ccccc23)c1 | 8.74 |
